Assay results: a collection of fitness landscapes (doi:10.1126/science.1257360)
Some of the results follow.

B1: PhoQ; a variant is named by its letters at X, in order, P23837 (parent)
chain: MKKLLRLFFPLSLRVRFLLATAAVVLVLSLAYGMVALIGYSVSFDKTTFRLLRGESNLFYTLAKWENNKLHVELPENIDKQSPTMTLIYDENGQLLWAQRDVPWLMKMIQPDWLKSNGFHEIEADVNDTSLLLSGDHSIQQQLQEVREDDDDAEMTHSVAVNVYPATSRMPKLTIVVVDTIPVELKSSYMVWSWFIYVLSANLLLVIPLLWVAAWWSLRPIEALAKEVRELEEHNRELLNPATTRELTSLVRNLNRLLKSERERYDKYRTTLTDLTHSLKTPLXXLQXXLRSLRSEKMSVSDAEPVMLEQISRISQQIGYYLHRASMRGGTLLSRELHPVAPLLDNLTSALNKVYQRKGVNISLDISPEISFVGEQNDFVEVMGNVLDNACKYCLEFVEISARQTDEHLYIVVEDDGPGIPLSKREVIFDRGQRVDTLRPGQGVGLAVAREITEQYEGKIVAGESMLGGARMEVIFGRQHSAPKDE

Variants of: B1
Assay: enrichment ratio after two sorts for PhoP signalling (ratio (wild type AVST 3.29)); higher = more functional
Details: with PhoP (E. coli)

| Variant | enrichment ratio |
| --- | --- |
| ERAK | ≤ 0.25 |
| KLLS | ≤ 0.25 |
| HQGS | ≤ 0.25 |
| WTGV | ≤ 0.25 |
| DIRG | ≤ 0.25 |
| DLLT | ≤ 0.25 |
| GALT | 2.47 |
| MLTR | ≤ 0.25 |
| MNGC | ≤ 0.25 |
| SSCG | 12.6 |
| QTNY | 17.5 |
| FHFV | ≤ 0.25 |
| HHAD | ≤ 0.25 |
| EYIH | ≤ 0.25 |
| AESD | 0.253 |
| TDGD | ≤ 0.25 |
| MDMD | ≤ 0.25 |
| SGCK | 8.85 |
| VCQV | ≤ 0.25 |
| WFEH | ≤ 0.25 |
| AVHK | ≤ 0.25 |
| EAYP | ≤ 0.25 |
| WPQS | ≤ 0.25 |
| WKST | ≤ 0.25 |

| Variant | enrichment ratio |
| --- | --- |
| NDQS | ≤ 0.25 |
| MEGV | ≤ 0.25 |
| IRIA | ≤ 0.25 |
| FISY | ≤ 0.25 |
| WRVR | ≤ 0.25 |
| NWGL | ≤ 0.25 |
| KEGA | ≤ 0.25 |
| TFEM | ≤ 0.25 |
| LMIN | ≤ 0.25 |
| VQVM | ≤ 0.25 |
| FESI | ≤ 0.25 |
| DKVN | ≤ 0.25 |
| CYFQ | ≤ 0.25 |
| IAHI | ≤ 0.25 |
| QCCY | ≤ 0.25 |
| EQAW | ≤ 0.25 |
| RTWR | ≤ 0.25 |
| HRSC | ≤ 0.25 |
| LWKV | ≤ 0.25 |
| VFDP | ≤ 0.25 |
| PSPN | ≤ 0.25 |
| SSPH | ≤ 0.25 |
| CSHF | ≤ 0.25 |
| DGIK | ≤ 0.25 |

| Variant | enrichment ratio |
| --- | --- |
| KHFM | ≤ 0.25 |
| YNPM | ≤ 0.25 |
| SRQC | ≤ 0.25 |
| IHHA | ≤ 0.25 |
| HYNV | ≤ 0.25 |
| GKQV | ≤ 0.25 |
| DVTY | ≤ 0.25 |
| HRAK | ≤ 0.25 |
| WCMY | ≤ 0.25 |
| MKWV | ≤ 0.25 |
| LVCN | ≤ 0.25 |
| DWHL | ≤ 0.25 |
| HIRH | ≤ 0.25 |
| DRDA | ≤ 0.25 |
| MATM | 22.6 |
| TIRT | ≤ 0.25 |
| KSEE | ≤ 0.25 |
| KPHE | ≤ 0.25 |
| SGEV | ≤ 0.25 |
| EVML | ≤ 0.25 |
| DQDP | ≤ 0.25 |
| TYKE | ≤ 0.25 |
| SCLP | ≤ 0.25 |
| TLYQ | 0.833 |

| Variant | enrichment ratio |
| --- | --- |
| KPPM | ≤ 0.25 |
| HSLY | ≤ 0.25 |
| TVNR | 4.75 |
| SCAL | 7.78 |
| WLRI | ≤ 0.25 |
| PLDI | ≤ 0.25 |
| SKWA | ≤ 0.25 |
| FSAA | ≤ 0.25 |
| VNDP | ≤ 0.25 |
| TDFK | ≤ 0.25 |
| YADS | ≤ 0.25 |
| QRYY | ≤ 0.25 |
| VDTD | ≤ 0.25 |
| TSMM | 21.5 |
| KPSN | ≤ 0.25 |
| HVKT | ≤ 0.25 |
| QEVS | ≤ 0.25 |
| MSWM | 23.7 |
| GIHS | ≤ 0.25 |
| SGKK | ≤ 0.25 |
| RRRQ | ≤ 0.25 |
| DCPV | ≤ 0.25 |
| TLTE | ≤ 0.25 |
| THIW | ≤ 0.25 |

| Variant | enrichment ratio |
| --- | --- |
| LWSN | ≤ 0.25 |
| NEWN | ≤ 0.25 |
| VQFN | ≤ 0.25 |
| GVLY | 3.39 |
| DDQK | ≤ 0.25 |
| MTIC | ≤ 0.25 |
| SHLE | 8.54 |
| HYAF | ≤ 0.25 |
| SSYD | ≤ 0.25 |
| MCLD | ≤ 0.25 |
| DHFY | ≤ 0.25 |
| QCRW | ≤ 0.25 |
| HAHS | ≤ 0.25 |
| TTCL | 18.5 |
| EAVK | ≤ 0.25 |
| IVPL | ≤ 0.25 |
| IEYC | ≤ 0.25 |
| PPCR | ≤ 0.25 |
| DVLE | ≤ 0.25 |
| AHNH | 3.12 |
| FASK | ≤ 0.25 |
| EKCA | ≤ 0.25 |
| WVSM | ≤ 0.25 |
| PRNT | ≤ 0.25 |

| Variant | enrichment ratio |
| --- | --- |
| YRTY | ≤ 0.25 |
| LTVI | ≤ 0.25 |
| QWSA | ≤ 0.25 |
| GPSW | ≤ 0.25 |
| NEQG | ≤ 0.25 |
| LSEI | ≤ 0.25 |
| NHKP | ≤ 0.25 |
| PWFG | ≤ 0.25 |
| ALYQ | ≤ 0.25 |
| FWRR | ≤ 0.25 |
| RFMK | ≤ 0.25 |
| VNTN | ≤ 0.25 |
| AGTD | ≤ 0.25 |
| TICD | ≤ 0.25 |
| NSEC | ≤ 0.25 |
| MWYF | ≤ 0.25 |
| NKQL | ≤ 0.25 |
| ECSS | ≤ 0.25 |
| FLWW | ≤ 0.25 |
| YDKC | ≤ 0.25 |
| FEPM | ≤ 0.25 |
| LFEC | ≤ 0.25 |
| MATY | ≤ 0.25 |
| RARE | ≤ 0.25 |

| Variant | enrichment ratio |
| --- | --- |
| SMVK | 1.5 |
| EQKM | ≤ 0.25 |
| SKNM | ≤ 0.25 |
| LAEV | ≤ 0.25 |
| QAMC | ≤ 0.25 |
| HNAM | ≤ 0.25 |
| WSMA | ≤ 0.25 |
| DISI | ≤ 0.25 |
| AMYK | ≤ 0.25 |
| DTWQ | ≤ 0.25 |
| SGSH | 10.8 |
| ICKY | ≤ 0.25 |
| LYPS | ≤ 0.25 |
| LGYM | 8.74 |
| MRRM | ≤ 0.25 |
| RYMF | ≤ 0.25 |
| KPWF | ≤ 0.25 |
| GGSI | 12.3 |
| EDIC | ≤ 0.25 |
| RVAT | ≤ 0.25 |
| ACFS | ≤ 0.25 |
| SNFW | 1.1 |
| IPGP | ≤ 0.25 |
| RGHY | ≤ 0.25 |

| Variant | enrichment ratio |
| --- | --- |
| HWLL | ≤ 0.25 |
| FHEH | ≤ 0.25 |
| MIWG | ≤ 0.25 |
| SDLT | 7.31 |
| LMKG | ≤ 0.25 |
| NVPR | ≤ 0.25 |
| LFNA | ≤ 0.25 |
| AFDT | ≤ 0.25 |
| LYVQ | ≤ 0.25 |
| GRQV | ≤ 0.25 |
| KAET | ≤ 0.25 |
| MLKD | ≤ 0.25 |
| SFKL | ≤ 0.25 |
| KYWQ | ≤ 0.25 |
| FHRA | ≤ 0.25 |
| AFDM | ≤ 0.25 |
| DNAY | ≤ 0.25 |
| GKRK | ≤ 0.25 |
| TKNF | ≤ 0.25 |
| VTQS | ≤ 0.25 |
| EIDV | ≤ 0.25 |
| FHPC | ≤ 0.25 |
| KNWT | ≤ 0.25 |
| PWNH | ≤ 0.25 |

| Variant | enrichment ratio |
| --- | --- |
| GCRQ | ≤ 0.25 |
| KPPK | ≤ 0.25 |
| LAMP | ≤ 0.25 |
| RATE | ≤ 0.25 |
| YHRS | ≤ 0.25 |
| FLNC | ≤ 0.25 |
| IWKY | ≤ 0.25 |
| YSHH | ≤ 0.25 |
| AHTD | ≤ 0.25 |
| IVGD | ≤ 0.25 |
| HDCI | ≤ 0.25 |
| MYLP | ≤ 0.25 |
| NGSQ | ≤ 0.25 |
| YNME | ≤ 0.25 |
| YHTS | ≤ 0.25 |
| ELPM | ≤ 0.25 |
| QYFS | ≤ 0.25 |
| RAAG | ≤ 0.25 |
| YAYL | ≤ 0.25 |
| FKCY | ≤ 0.25 |
| VHSK | ≤ 0.25 |
| MLSG | ≤ 0.25 |
| THEV | ≤ 0.25 |
| EFFK | ≤ 0.25 |

| Variant | enrichment ratio |
| --- | --- |
| GQEW | ≤ 0.25 |
| GMWN | ≤ 0.25 |
| KGQS | ≤ 0.25 |
| QVIQ | ≤ 0.25 |
| IVAC | ≤ 0.25 |
| NSLA | ≤ 0.25 |
| NCVK | ≤ 0.25 |
| FAYL | ≤ 0.25 |
| LWNP | ≤ 0.25 |
| ESYA | ≤ 0.25 |
| RKAW | ≤ 0.25 |
| SDVE | ≤ 0.25 |
| FCWK | ≤ 0.25 |
| GISH | 9.65 |
| WNPE | ≤ 0.25 |
| GPCA | ≤ 0.25 |
| NHAR | ≤ 0.25 |
| PFCT | ≤ 0.25 |
| NNPY | ≤ 0.25 |
| TSYC | 7.47 |
| HPYL | ≤ 0.25 |
| EMEF | ≤ 0.25 |
| TNMI | 11.7 |
| SNVA | 6.33 |

| Variant | enrichment ratio |
| --- | --- |
| NHGE | ≤ 0.25 |
| GGKY | ≤ 0.25 |
| SACY | 8.86 |
| NAIM | ≤ 0.25 |
| RHCC | ≤ 0.25 |
| HQDS | ≤ 0.25 |
| YYDI | ≤ 0.25 |
| HMQW | ≤ 0.25 |
| PGCQ | ≤ 0.25 |
| PKQV | ≤ 0.25 |
| NSLD | ≤ 0.25 |
| TNQK | ≤ 0.25 |
| EAST | ≤ 0.25 |
| IPGR | ≤ 0.25 |
| YDNS | ≤ 0.25 |
| ECGD | ≤ 0.25 |
| ILCY | ≤ 0.25 |
| HTKF | ≤ 0.25 |
| GFRI | ≤ 0.25 |
| RIMM | ≤ 0.25 |
| IYAV | ≤ 0.25 |
| FQIH | ≤ 0.25 |
| QKKH | ≤ 0.25 |
| IISQ | ≤ 0.25 |

| Variant | enrichment ratio |
| --- | --- |
| WHSH | ≤ 0.25 |
| WDYS | ≤ 0.25 |
| WTKQ | ≤ 0.25 |
| FSCR | ≤ 0.25 |
| ADPH | ≤ 0.25 |
| QFHV | ≤ 0.25 |
| DDPA | ≤ 0.25 |
| PTRL | ≤ 0.25 |
| AHPH | ≤ 0.25 |
| MHMW | ≤ 0.25 |
| WRAC | ≤ 0.25 |
| LDNT | 2.01 |
| SNVV | 7.87 |
| ATHH | ≤ 0.25 |
| WGWI | ≤ 0.25 |
| PQVA | ≤ 0.25 |
| LKNI | ≤ 0.25 |
| DLDM | ≤ 0.25 |
| SSLG | 16.1 |
| LPTI | ≤ 0.25 |
| DRST | ≤ 0.25 |
| PDIH | ≤ 0.25 |
| QTLC | ≤ 0.25 |
| VRNH | ≤ 0.25 |

| Variant | enrichment ratio |
| --- | --- |
| IHLG | ≤ 0.25 |
| QYPC | ≤ 0.25 |
| PSFI | ≤ 0.25 |
| SYMC | ≤ 0.25 |
| PVQA | ≤ 0.25 |
| LCKY | ≤ 0.25 |
| SDLG | 5.16 |
| GPFL | ≤ 0.25 |
| MYFI | ≤ 0.25 |
| VWTF | ≤ 0.25 |
| QNGS | 3.28 |
| QQKA | ≤ 0.25 |
| RFHF | ≤ 0.25 |
| EHGR | ≤ 0.25 |
| FSIL | 4.53 |
| FCRL | ≤ 0.25 |
| YIRT | ≤ 0.25 |
| VWDA | ≤ 0.25 |
